From the supplement of paper PMC12582362
Where a name gives a salt, the structure may show the parent alone. Screen size: about 1,500 compounds; about 30 (2%) showed activity.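 The calls were made as follows: active = robust z-score below -2; a few such results were not called.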 This is one part of the list.

test system: optoTopBP1 Flp-In 293 T-REx (HEK293) cells; assay: light-induced TopBP1 condensate (nuclear foci) count, plate-normalised robust z-score vs non-control wells; higher = more TopBP1 condensates (negative = condensation inhibitor), active = hit call of the paper; conditions: 10 µM; incubation time 2 h

| SMILES | light-induced TopBP1 condensate (z-score) |
| --- | --- |
| O=C(OCC(O)CO)c1ccccc1Nc1ccnc2cc(Cl)ccc12 (centres undefined) [Glafenine hydrochloride] | inactive: 0.834 |
| NC(=O)c1cn(Cc2c(F)cccc2F)nn1 [Rufinamide] | inactive: 0.403 |
| CC(C(=O)O)c1ccc(-c2ccccc2)c(F)c1 (centres undefined) [Flurbiprofen] | inactive: -0.793 |
| C[C@H]1O[C@@H](O[C@H]2[C@@H](O)C[C@H](O[C@H]3[C@@H](O)C[C@H](O[C@H]4CC[C@@]5(C)[C@H](CC[C@@H]6[C@@H]5C[C@@H](O)[C@]5(C)[C@@H](C7=CC(=O)OC7)CC[C@]65O)C4)O[C@@H]3C)O[C@@H]2C)C[C@H](O)[C@@H]1O [Digoxin] | active: -2.42 |
| COc1cc([S+](C)[O-])ccc1-c1nc2cccnc2[nH]1 (centres undefined) [Sulmazole] | inactive: 1.19 |
| Nc1nc(CC(=O)Nc2ccc(CCNC[C@H](O)c3ccccc3)cc2)cs1 [Mirabegron] | inactive: 2.84 |
| NC[C@@H]1O[C@H](O[C@H]2[C@@H](O)[C@H](O[C@@H]3[C@@H](O)[C@H](N)C[C@H](N)[C@H]3O[C@H]3O[C@H](CO)[C@@H](O)[C@H](O)[C@H]3N)O[C@@H]2CO)[C@H](N)[C@@H](O)[C@@H]1O [Paromomycin sulfate] | inactive: 0.152 |
| COc1ccccc1OCC(O)CO (centres undefined) [Guaifenesin] | inactive: 1.14 |
| CC(=O)[C@H]1CC[C@H]2[C@@H]3C=CC4=CC(=O)CC[C@@]4(C)[C@@H]3CC[C@]12C [Dydrogesterone] | inactive: 1.07 |
| CN1[C@@H]2CC[C@H]1C[C@@H](OC(=O)c1c[nH]c3ccccc13)C2 [Tropisetron hydrochloride] | inactive: 0.644 |
| Cc1cccc(C)c1OCC(C)N (centres undefined) [Mexiletine hydrochloride] | inactive: -1.11 |
| N#Cc1cc(NC(=O)C(=O)O)c(Cl)c(NC(=O)C(=O)O)c1 [Lodoxamide] | inactive: 0.686 |
| COc1ccc(/C=C/C(=O)Nc2ccccc2C(=O)O)cc1OC [Tranilast] | inactive: 0.231 |
| CCOC(=O)C1=C(COCCN)NC(C)=C(C(=O)OC)C1c1ccccc1Cl (centres undefined) [Amlodipine] | inactive: -1.57 |
| Cc1c(N(C)C)c(=O)n(-c2ccccc2)n1C [Amidopyrine] | inactive: 0.149 |
| Oc1c(Cl)cc(Cl)c(Cl)c1Cc1c(O)c(Cl)cc(Cl)c1Cl [Hexachlorophene] | inactive: -1.28 |
| OC(CNCC(O)C1CCc2cc(F)ccc2O1)C1CCc2cc(F)ccc2O1 (centres undefined) [Nebivolol hydrochloride] | inactive: -0.227 |
| CC(=O)NS(=O)(=O)c1ccc(NC(=O)c2ccccc2C(=O)O)cc1 [Phthalylsulfacetamide] | inactive: 0.552 |
| CC[C@H](C)[C@H](N)C1=N[C@H](C(=O)N[C@@H](CC(C)C)C(=O)N[C@H](CCC(=O)O)C(=O)N[C@H](C(=O)N[C@H]2CCCCNC(=O)[C@H](CC(N)=O)NC(=O)[C@@H](CC(=O)O)NC(=O)[C@H](Cc3cnc[nH]3)NC(=O)[C@@H](Cc3ccccc3)NC(=O)[C@H]([C@@H](C)CC)NC(=O)[C@@H](CCCN)NC2=O)[C@@H](C)CC)CS1 [Bacitracin] | inactive: -1.45 |
| CN1CCN(CCCN2c3ccccc3Sc3ccc(C(F)(F)F)cc32)CC1 [Trifluoperazine dihydrochloride] | inactive: -1.07 |
| COc1ccc(OC)c(C(O)CNC(=O)CN)c1 (centres undefined) [Midodrine hydrochloride] | inactive: -0.342 |
| CN(C)CCN1C(=O)c2ccccc2N(C)c2ccccc21 [Dibenzepine hydrochloride] | inactive: 0.243 |

| SMILES | light-induced TopBP1 condensate (z-score) |
| --- | --- |
| CN(C(=O)C(Cl)Cl)c1ccc(OC(=O)c2ccco2)cc1 [Diloxanide furoate] | inactive: 0.164 |
| Nc1ccn([C@H]2CC[C@@H](CO)O2)c(=O)n1 [Zalcitabine] | inactive: 0.161 |
| CN(C)CCOC(C)(c1ccccc1)c1ccccn1 (centres undefined) [Doxylamine succinate] | inactive: 0.568 |
| CC(=O)c1ccc2c(c1)N(CCCN(C)C)c1ccccc1S2 [Acetopromazine maleate salt] | inactive: -0.654 |
| C[C@@H](O)[C@H]1C(=O)N2C(C(=O)O)=C(S[C@@H]3CN[C@H](CNS(N)(=O)=O)C3)[C@H](C)[C@H]12 [Doripenem monohydrate] | inactive: 1.08 |
| Oc1c(I)cc(Cl)c2cccnc12 [Clioquinol] | inactive: -0.446 |
| CC(C)(C#N)c1cc(Cn2cncn2)cc(C(C)(C)C#N)c1 [Anastrozole] | inactive: 0.567 |
| C(=C\c1ccccc1)/CN1CCN(C(c2ccccc2)c2ccccc2)CC1 [Cinnarizine] | inactive: -0.84 |
| O=C(C1CCCCC1)N1CC(=O)N2CCc3ccccc3C2C1 (centres undefined) [Praziquantel] | inactive: -0.679 |
| COc1ccc2c(c1)c(CC(=O)O)c(C)n2C(=O)c1ccc(Cl)cc1 [Indomethacin] | inactive: 0.294 |
| Nc1nc2ccc(OC(F)(F)F)cc2s1 [Riluzole hydrochloride] | inactive: -0.134 |
| CN1CCC(=C2c3ccccc3CCc3cccnc32)CC1 [Azatadine maleate] | inactive: -1.62 |
| CC(C)(C)NCC(O)COc1cccc2c1CCC(=O)N2 (centres undefined) [Carteolol hydrochloride] | inactive: 1.6 |
| C=C1c2c(Cl)ccc(O)c2C(=O)C2=C(O)[C@]3(O)C(=O)C(C(N)=O)=C(O)[C@@H](N(C)C)[C@@H]3[C@@H](O)[C@H]12.O=C(O)c1cc(S(=O)(=O)O)ccc1O [Meclocycline sulfosalicylate] | inactive: 0.506 |
| CC(=O)NCCCS(=O)(=O)O [Acamprosate calcium] | inactive: -1.11 |
| CCOC(=O)O[C@]1(C(=O)COC(=O)CC)CC[C@H]2[C@@H]3CCC4=CC(=O)C=C[C@]4(C)[C@H]3[C@@H](O)C[C@@]21C [Prednicarbate] | inactive: 0.076 |
| Cc1cc(C(C)(C)C)c(O)c(C)c1CC1=NCCN1 [Oxymetazoline hydrochloride] | inactive: -0.78 |
| CN(C)CCCN1c2ccccc2Sc2ccccc21 [Promazine hydrochloride] | inactive: -0.124 |
| NS(=O)(=O)c1cc(C(=O)O)cc(N2CCCC2)c1Oc1ccccc1 [Piretanide] | inactive: 0.111 |
| COc1ccc([C@@H]2CC(=O)c3c(O)cc(O[C@@H]4O[C@H](CO[C@@H]5O[C@@H](C)[C@H](O)[C@@H](O)[C@H]5O)[C@@H](O)[C@H](O)[C@H]4O)cc3O2)cc1O [Hesperidin] | inactive: 0.579 |
| CC(C)(C(=O)O)c1ccc(C(O)CCCN2CCC(C(O)(c3ccccc3)c3ccccc3)CC2)cc1 (centres undefined) [Fexofenadine hydrochloride] | inactive: 0.896 |
| Cc1c(C)c2c(c(C)c1O)CCC(C)(COc1ccc(CC3SC(=O)NC3=O)cc1)O2 (centres undefined) [Troglitazone] | inactive: -0.719 |

| SMILES | light-induced TopBP1 condensate (z-score) |
| --- | --- |
| COC(c1ccccc1)(c1ccccc1)[C@H](Oc1nc(C)cc(C)n1)C(=O)O [Ambrisentan] | inactive: 0.0185 |
| COC(=O)C1=C(C)NC(C)=C(C(=O)OCCN2CCN(C(c3ccccc3)c3ccccc3)CC2)C1c1cccc([N+](=O)[O-])c1 (centres undefined) [Manidipine Dihydrochloride] | inactive: -0.172 |
| CC(=O)Nc1ccccc1 [Acetanilide] | inactive: -0.756 |
| CC(C(=O)O)c1ccc2c(c1)Cc1cccnc1O2 (centres undefined) [Pranoprofen] | inactive: 1.25 |
| CSc1ccc2c(c1)C(N1CCN(C)CC1)Cc1ccccc1S2 (centres undefined) [Methiothepin maleate] | inactive: -0.0722 |
| COC(=O)Nc1nc2cc(C(=O)c3ccccc3)ccc2[nH]1 [Mebendazole] | inactive: -1.07 |
| CC(C)c1ccc2oc3nc(N)c(C(=O)O)cc3c(=O)c2c1 [Amlexanox] | inactive: -0.968 |
| CC1(C)S[C@@H]2[C@H](NC(=O)[C@H](NC(=O)N3CCNC3=O)c3ccccc3)C(=O)N2[C@H]1C(=O)O [Azlocillin sodium salt] | inactive: 0.586 |
| Cc1cc2c(cc1S(N)(=O)=O)S(=O)(=O)CCC2 [Meticrane] | inactive: 1.16 |
| NCCNCCNCCNCCN [Tetraethylenepentamine pentahydrochloride] | inactive: 0.924 |
| CN1C(C)(C)CCCC1(C)C [Pempidine] | inactive: 1.62 |
| Cc1onc(-c2c(Cl)cccc2Cl)c1C(=O)N[C@@H]1C(=O)N2[C@@H]1SC(C)(C)[C@@H]2C(=O)O [Dicloxacillin sodium salt hydrate] | inactive: 0.0668 |
| CN(C)/N=N/c1[nH]cnc1C(N)=O [Dacarbazine] | inactive: 0.0424 |
| CC[N+](C)(C)Cc1ccccc1Br [Bretylium tosylate] | inactive: -0.232 |
| C[N+](C)(C)CCCCCC[N+](C)(C)C [Hexamethonium dibromide dihydrate] | inactive: -0.0606 |
| CC1CC(OC(=O)C(O)c2ccccc2)CC(C)(C)C1 (centres undefined) [Cyclandelate] | inactive: 0.482 |
| O=C(O)c1cccnc1Nc1cccc(C(F)(F)F)c1 [Niflumic acid] | inactive: -0.811 |
| COc1ccc(C(Cl)=C(c2ccc(OC)cc2)c2ccc(OC)cc2)cc1 [Chlorotrianisene] | inactive: 0.497 |
| Cc1oncc1C(=O)Nc1ccc(C(F)(F)F)cc1 [Leflunomide] | inactive: 0.943 |
| CCOC(=O)c1c(N)sc2c1CCN(Cc1ccccc1)C2 [Tinoridine hydrochloride] | inactive: 0.308 |
